# From PubChem BioAssay (Tox21)
# Several values for one entry are separate records, joined by “and”; a condition that tells them apart may be missing. Identical values can stand only once. Inconclusive results, whose numbers are uncertain, are shown with a selection of clear calls. For some of these results: Potencies of inconclusive entries are doubtful fits and often do not repeat. Activity calls are given as the source filed them. Unless noted, calls follow the shape of the dose curve; as a rule, active = well fitted curve in the direction sought with a large enough effect in the repeat runs; inconclusive = weak or mixed curves; inactive = no such curve, though single readings can be large; an effect the other way counts as inactive or inconclusive.
# Legend:
# [1] = target: Peroxisome proliferator-activated receptor gamma (Homo sapiens) (UniProt P37231); test: qHTS assay to identify small molecule antagonists of the peroxisome proliferator-activated receptor gamma (PPARg) signaling pathway (AID 743191; calls by dose curve; also: nearly all actives have a fitted effect of over 30% in size; also: potency is read from the fitted curve at half-maximal effect; as to ratio activity, negative = inhibition: % is scaled to controls: 0 for no effect and ±100 for the full control effect); settings: HEK293H PPARg-UAS-bla, beta-lactamase ratio, antagonist, 17 h
# Procedure, shortened: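 GeneBLAzer PPARg UAS-bla HEK293H cells, 5 h post-plating, exposed to compounds 17 h at 37C. LiveBLAzer B/G FRET substrate added for 1 h at room temperature; beta-lactamase reporter read by fluorescence intensity.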
# [2] = qHTS assay for small molecule agonists of the antioxidant response element (ARE) signaling pathway (AID 743202; active = well fitted activation curve with a large enough effect in the signal ratio in the repeat runs, not every such curve was filed as active; inconclusive = weak or mixed curves, or effect the other way; inactive = no such curve, though single readings can be large or run the other way; the % refers to the signal ratio; also: potency is read from the fitted curve at half-maximal effect); settings: HepG2 ARE-bla reporter, beta-lactamase FRET, 16 h; activation: at 73.3 µM (top of the series) unless noted
# Procedure, shortened: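 ARE-bla HepG2 cells (beta-lactamase reporter under the antioxidant response element), plated 5 hours, then exposed to compounds 16 hours at 37 C. LiveBLAzer B/G FRET substrate added for 2 hours at room temperature; fluorescence intensity read.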
# [3] = target: Peroxisome proliferator-activated receptor delta (Homo sapiens) (UniProt Q03181); test: qHTS assay to identify small molecule antagonists of the peroxisome proliferator-activated receptor delta (PPARd) signaling pathway (AID 743215; active = well fitted inhibition curve with a large enough effect in the signal ratio in the repeat runs, not every such curve was filed as active; inconclusive = weak or mixed curves, or effect the other way; inactive = no such curve, though single readings can be large or run the other way; the % refers to the signal ratio;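 also: cells stimulated with agonist L165041 at 300 nM final during compound exposure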; also: potency is read from the fitted curve at half-maximal effect; as to ratio activity, negative = inhibition: % is scaled to controls: 0 for no effect and ±100 for the full control effect); settings: HEK293H PPARd-UAS-bla, beta-lactamase FRET ratio, antagonist, 17 h; ratio activity, negative = inhibition: at 62 µM (top of the series) unless noted
# Procedure, shortened: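 PPARd-bla HEK293H cells (UAS-bla reporter) preincubated 5 h, then given compound plus 300 nM final L165041 agonist for 17 h at 37 C. Beta-lactamase activity read by LiveBLAzer B/G FRET substrate fluorescence after 2 h at room temperature.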
# [4] = target: Bile acid receptor (Homo sapiens) (UniProt Q96RI1); test: qHTS assay to identify small molecule antagonists of the farnesoid-X-receptor (FXR) signaling pathway (AID 743217; active = well fitted inhibition curve with a large enough effect in the signal ratio in the repeat runs, not every such curve was filed as active; inconclusive = weak or mixed curves, or effect the other way; inactive = no such curve, though single readings can be large or run the other way; the % refers to the signal ratio; also: potency is read from the fitted curve at half-maximal effect; as to activity change, negative = inhibition: % is scaled to controls: 0 for no effect and ±100 for the full control effect); settings: HEK293T FXR-UAS-bla, beta-lactamase ratio, CDCA-stimulated, 16 h; activity change, negative = inhibition: at 62.6 µM (top of the series) unless noted
# Procedure, shortened: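 FXR-UAS-bla HEK 293T cells (beta-lactamase reporter) given compound plus chenodeoxycholic acid (50 uM final), 16 h at 37C. LiveBLAzer B/G FRET substrate added for 2 h at room temperature; fluorescence read.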
# [5] = qHTS assay to identify small molecule antagonists of the vitamin D receptor (VDR) signaling pathway - cell viability counter screen (AID 743225); settings: VDR-bla HEK293T viability, CellTiter-Glo luminescence, 16 h; viability change, negative = cytotoxic: at 61 µM (top of the series) unless noted; also: nearly all actives have a fitted effect of over 50% in size; also: potency is read from the fitted curve at half-maximal effect
# Procedure, shortened: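 Viability counter screen run in the same wells as the beta-lactamase reporter assay: HEK 293T VDR-UAS-bla cells, 16 h compound exposure at 37C with 3 nM (final) 1-alpha,25-dihydroxyvitamin D3. CellTiter-Glo luminescence, 30 min, room temperature.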
# [6] = qHTS assay to identify small molecule antagonists of the peroxisome proliferator-activated receptor gamma (PPARg) signaling pathway - cell viability counter screen (AID 743194); settings: PPARg-bla HEK293H viability, CellTiter-Glo luminescence, 17 h; Potency: co-treated with 50 nM rosiglitazone unless noted; activity change, negative = cytotoxicity: at 62.6 µM (top of the series), co-treated with 50 nM rosiglitazone unless noted; also: % is scaled to controls: 0 for no effect and ±100 for the full control effect; nearly all actives have a fitted effect of over 55% in size
# Procedure, shortened: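 Cytotoxicity counter screen in PPARg-bla HEK293H cells, same wells as reporter assay. Compounds plus 50 nM rosiglitazone (final) for 17 h at 37 C, then viability read by CellTiter-Glo luminescence.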
# [7] = qHTS assay for small molecule agonists of the antioxidant response element (ARE) signaling pathway - cell viability counter screen (AID 743203; calls by dose curve; also: potency is read from the fitted curve at half-maximal effect; nearly all actives have a fitted effect of over 55% in size); settings: ARE-bla HepG2 viability, CellTiter-Glo luminescence, 16 h; series mostly up to 73.3 µM
# Procedure, shortened: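 ARE-bla HepG2 cells were plated, rested 5 h at 37C/5% CO2, then exposed to compounds in DMSO for 16 h. Viability was read as CellTiter-Glo luminescence after 30 min at room temperature, in the same wells as the ARE screen.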
# [8] = qHTS assay to identify small molecule agonists of the peroxisome proliferator-activated receptor delta (PPARd) signaling pathway - cell viability counter screen (AID 743211); settings: PPARd-bla HEK293H viability, CellTiter-Glo luminescence, 17 h; activity change, negative = cytotoxicity: at 62.6 µM (top of the series) unless noted; also: nearly all actives have a fitted effect of over 55% in size; also: potency is read from the fitted curve at half-maximal effect
# Procedure, shortened: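 Read-out: CellTiter-Glo luminescence, 30 min RT, measured in the same wells as the beta-lactamase reporter. Cells: GeneBLAzer PPAR delta UAS-bla HEK293H, 3000 cells/well, compound exposure 17 h at 37C.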
# [9] = target: Vitamin D3 receptor (Homo sapiens) (UniProt P11473); test: qHTS assay to identify small molecule antagonists of the vitamin D receptor (VDR) signaling pathway (AID 743223; active = well fitted inhibition curve with a large enough effect in the signal ratio in the repeat runs, not every such curve was filed as active; inconclusive = weak or mixed curves, or effect the other way; inactive = no such curve, though single readings can be large or run the other way; the % refers to the signal ratio; also: % is scaled to controls: 0 for no effect and ±100 for the full control effect); settings: VDR-UAS-bla HEK293T, beta-lactamase FRET ratio, 16 h
# Procedure, shortened: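 Beta-lactamase reporter read-out: FRET substrate fluorescence after 2 h at room temperature, following 16 h exposure of VDR-bla cells to test compound plus 3 nM (final) 1alpha,25-dihydroxyvitamin D3 agonist at 37C.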
# [10] = qHTS assay for small molecule activators of the heat shock response signaling pathway - cell viability counter screen (AID 743209); settings: HSE-bla HeLa viability, CellTiter-Glo luminescence, 5 h; activity change, negative = cytotoxicity: at 62.6 µM (top of the series) unless noted; also: potency is read from the fitted curve at half-maximal effect; nearly all actives have a fitted effect of over 50% in size
# Procedure, shortened: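 HSE-bla HeLa cells plated overnight, then exposed to Tox21 compounds (23 nL in DMSO) for 5 h at 37 C. After the bla reporter read, CellTiter-Glo was added in the same wells and luminescence read after 30 min at room temperature.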
# [11] = qHTS assay for small molecule activators of the heat shock response signaling pathway (AID 743210; active = well fitted activation curve with a large enough effect in the signal ratio in the repeat runs, with a control signal flat, not every such curve was filed as active; inconclusive = weak or mixed curves; the % refers to the signal ratio; also: potency is read from the fitted curve at half-maximal effect); settings: HeLa HSE-bla reporter, beta-lactamase ratio, 5 h; activation: at 62.6 µM (top of the series)
# Procedure, shortened: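 HSE-bla HeLa cells (beta-lactamase reporter under heat shock response elements), plated overnight, then exposed to compounds 5 h at 37 C; LiveBLAzer B/G FRET substrate added, 2.5 h at room temperature, fluorescence intensity read.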
# [12] = qHTS assay to identify small molecule antagonists of the farnesoid-X-receptor (FXR) signaling pathway - cell viability counter screen (AID 743221; active = well fitted cell-killing curve with a large enough effect in the repeat runs, not every such curve was filed as active; inconclusive = weak or mixed curves, or effect the other way; inactive = no such curve, though single readings can be large or run the other way; also: potency is read from the fitted curve at half-maximal effect; nearly all actives have a fitted effect of over 50% in size); settings: FXR-bla HEK293T viability, CellTiter-Glo luminescence, 16 h; activity change, negative = cytotoxicity: at 62.6 µM (top of the series) unless noted
# Procedure, shortened: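 HEK 293T FXR-bla cells, 5 h pre-incubation; compound + CDCA 50 uM final, 16 h, 37 C; beta-lactamase FRET read first, then CellTiter-Glo luminescence, 30 min RT.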
# [13] = qHTS assay to identify small molecule agonists of the vitamin D receptor (VDR) signaling pathway - cell viability counter screen (AID 743224); settings: VDR-bla HEK293T viability, CellTiter-Glo luminescence, 16 h; series mostly up to 62.6 µM; also: potency is read from the fitted curve at half-maximal effect; nearly all actives have a fitted effect of over 50% in size
# Procedure, shortened: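 VDR-bla cells, 4 h after plating, exposed to compounds for 16 h at 37C; viability then read in the same wells as CellTiter-Glo luminescence after 30 min at room temperature, following the bla FRET read.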
# [14] = ratio activity, negative = inhibition: at 62.6 µM (top of the series) unless noted
# Tags tell the direction and shape of the fitted curve or compound fluorescence and quenching.
# UniProt Q03181, sequence (Q03181 whole entry, looked up): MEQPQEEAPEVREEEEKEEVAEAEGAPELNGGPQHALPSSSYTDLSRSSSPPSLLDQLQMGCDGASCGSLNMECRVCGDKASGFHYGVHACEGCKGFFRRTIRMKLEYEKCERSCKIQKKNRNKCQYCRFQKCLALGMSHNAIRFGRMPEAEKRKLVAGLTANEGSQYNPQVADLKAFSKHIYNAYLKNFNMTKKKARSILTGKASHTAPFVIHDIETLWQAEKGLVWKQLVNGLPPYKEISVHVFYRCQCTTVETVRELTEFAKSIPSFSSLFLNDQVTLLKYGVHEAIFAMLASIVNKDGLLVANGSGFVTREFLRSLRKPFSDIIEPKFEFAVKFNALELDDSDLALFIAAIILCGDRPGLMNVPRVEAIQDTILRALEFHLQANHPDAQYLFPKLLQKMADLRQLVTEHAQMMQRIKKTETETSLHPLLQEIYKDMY
# UniProt P37231, sequence (P37231 whole entry, looked up): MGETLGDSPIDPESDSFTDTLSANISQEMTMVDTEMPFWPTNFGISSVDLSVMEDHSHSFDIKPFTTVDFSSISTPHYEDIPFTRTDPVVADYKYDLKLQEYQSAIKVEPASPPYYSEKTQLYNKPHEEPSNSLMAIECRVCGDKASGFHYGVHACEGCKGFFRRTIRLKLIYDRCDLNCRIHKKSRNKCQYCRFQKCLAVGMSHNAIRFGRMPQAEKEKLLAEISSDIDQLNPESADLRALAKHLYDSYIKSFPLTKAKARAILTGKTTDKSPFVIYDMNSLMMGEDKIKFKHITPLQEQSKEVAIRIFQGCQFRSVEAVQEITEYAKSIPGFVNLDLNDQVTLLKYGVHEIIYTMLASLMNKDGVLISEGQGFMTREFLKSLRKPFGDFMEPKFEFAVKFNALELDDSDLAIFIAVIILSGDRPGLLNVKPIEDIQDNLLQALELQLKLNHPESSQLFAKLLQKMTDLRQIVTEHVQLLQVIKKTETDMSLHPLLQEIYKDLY
# UniProt Q96RI1, sequence (Q96RI1 whole entry, looked up): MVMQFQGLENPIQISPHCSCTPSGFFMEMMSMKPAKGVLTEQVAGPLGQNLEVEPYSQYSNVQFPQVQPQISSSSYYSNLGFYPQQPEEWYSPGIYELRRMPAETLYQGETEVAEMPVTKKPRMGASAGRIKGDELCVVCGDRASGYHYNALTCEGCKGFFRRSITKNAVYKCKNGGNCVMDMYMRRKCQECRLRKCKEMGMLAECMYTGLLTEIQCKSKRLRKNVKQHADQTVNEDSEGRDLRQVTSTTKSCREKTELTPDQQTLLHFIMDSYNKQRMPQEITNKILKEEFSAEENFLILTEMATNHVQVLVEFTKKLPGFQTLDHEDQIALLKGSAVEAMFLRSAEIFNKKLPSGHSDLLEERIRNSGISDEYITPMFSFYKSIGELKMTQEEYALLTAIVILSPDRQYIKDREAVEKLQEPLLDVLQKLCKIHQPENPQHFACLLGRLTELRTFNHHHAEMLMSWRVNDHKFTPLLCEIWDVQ
# UniProt P11473, sequence (P11473 whole entry, looked up): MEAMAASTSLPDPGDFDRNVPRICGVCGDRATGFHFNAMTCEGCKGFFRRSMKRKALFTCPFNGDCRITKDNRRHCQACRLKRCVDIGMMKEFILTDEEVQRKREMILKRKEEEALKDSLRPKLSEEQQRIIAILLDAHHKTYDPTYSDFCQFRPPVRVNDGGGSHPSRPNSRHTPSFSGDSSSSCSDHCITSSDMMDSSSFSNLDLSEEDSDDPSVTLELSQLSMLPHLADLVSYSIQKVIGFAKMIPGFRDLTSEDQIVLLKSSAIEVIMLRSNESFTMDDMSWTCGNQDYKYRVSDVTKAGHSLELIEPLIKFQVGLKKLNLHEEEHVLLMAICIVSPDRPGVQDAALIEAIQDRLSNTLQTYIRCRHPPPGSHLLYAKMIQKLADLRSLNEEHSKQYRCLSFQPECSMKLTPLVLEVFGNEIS
smiles,measurement,setting,value
CCN(CC)C(=O)C(C)Oc1cccc2ccccc12 (centres undefined),"ratio activity, negative = inhibition",[1]; at 62.6 µM (top of the series),inactive: -5.1%
same,"ratio activity, negative = inhibition",[1]; [14],inconclusive: 25.2% [at 81.1 µM]
same,Potency,[2],"inconclusive: 54.5 µM [rising, partial curve]"
same,Potency,[3],inactive
same,Potency,[4],inactive
same,Potency,[5],inactive
CCNCC,"ratio activity, negative = inhibition",[1]; at 62.6 µM (top of the series),inactive: -1.21%
same,"ratio activity, negative = inhibition",[1]; [14],inconclusive: 3.51% [at 81.1 µM]
same,Potency,[6],inactive
same,activation,[2],inconclusive: 1.09%
same,Potency,[7],"inconclusive: 1.4 nM [rising, full curve, poor fit]"
same,Potency,[8],inactive
same,Potency,[3],"inconclusive: 195 nM [fluorescent, full curve, poor fit]"
same,"activity change, negative = inhibition",[9]; at 61 µM (top of the series),inconclusive: 0.671%
same,"activity change, negative = inhibition",[9]; at 78.8 µM (top of the series),inconclusive: 0.579%
C[C@]12CCC(=O)C=C1CC[C@@H]1[C@@H]2CC[C@@]2(C)[C@H]1CC[C@]2(C)O,Potency,[1]; [14],"inconclusive: 49400 nM [fluorescent, partial curve, poor fit]"
same,"ratio activity, negative = inhibition",[1]; [14],inconclusive: 21.1%
same,Potency,[6],inactive
same,Potency,[2],inconclusive: 24.5 µM and inconclusive: 26.6 µM
same,Potency,[7],"inconclusive: 549 nM [cytotoxic, single point]"
same,Potency,[10],"inconclusive: 1060 nM [cytotoxic, partial curve, poor fit]"
same,Potency,[11],inconclusive: 2330 nM
same,Potency,[8],"inconclusive: 44000 nM [cytotoxic, partial curve, poor fit]"
same,Potency,[3],"inconclusive: 197 nM [fluorescent, full curve, poor fit]"
same,"ratio activity, negative = inhibition",[3],inconclusive: 1.66%
same,Potency,[4],inconclusive: 51000 nM
same,"activity change, negative = inhibition",[4],inconclusive: -28.8%
same,Potency,[12],"inconclusive: 4940 nM [phenotype inactive, partial curve, poor fit]"
same,Potency,[13],"inconclusive: 55400 nM [cytotoxic, partial curve, poor fit]"
same,Potency,[5],"inconclusive: 124 nM [cytotoxic, full curve, poor fit]"
CCOP(OCC)OCC,"ratio activity, negative = inhibition",[1]; at 81.1 µM (top of the series),inactive: -14.8%
same,"ratio activity, negative = inhibition",[1]; [14],inconclusive: 20.5%
same,activation,[2],inconclusive: 28.7% [at 94.8 µM]
same,Potency,[11],inactive
